This note sets out measurements from PMC3827193.

Sequences of proteins named here, by UniProt entry; tags and fusion partners are left off. Residues count along the entry.
UniProt Q9P3A7, residues 7-815: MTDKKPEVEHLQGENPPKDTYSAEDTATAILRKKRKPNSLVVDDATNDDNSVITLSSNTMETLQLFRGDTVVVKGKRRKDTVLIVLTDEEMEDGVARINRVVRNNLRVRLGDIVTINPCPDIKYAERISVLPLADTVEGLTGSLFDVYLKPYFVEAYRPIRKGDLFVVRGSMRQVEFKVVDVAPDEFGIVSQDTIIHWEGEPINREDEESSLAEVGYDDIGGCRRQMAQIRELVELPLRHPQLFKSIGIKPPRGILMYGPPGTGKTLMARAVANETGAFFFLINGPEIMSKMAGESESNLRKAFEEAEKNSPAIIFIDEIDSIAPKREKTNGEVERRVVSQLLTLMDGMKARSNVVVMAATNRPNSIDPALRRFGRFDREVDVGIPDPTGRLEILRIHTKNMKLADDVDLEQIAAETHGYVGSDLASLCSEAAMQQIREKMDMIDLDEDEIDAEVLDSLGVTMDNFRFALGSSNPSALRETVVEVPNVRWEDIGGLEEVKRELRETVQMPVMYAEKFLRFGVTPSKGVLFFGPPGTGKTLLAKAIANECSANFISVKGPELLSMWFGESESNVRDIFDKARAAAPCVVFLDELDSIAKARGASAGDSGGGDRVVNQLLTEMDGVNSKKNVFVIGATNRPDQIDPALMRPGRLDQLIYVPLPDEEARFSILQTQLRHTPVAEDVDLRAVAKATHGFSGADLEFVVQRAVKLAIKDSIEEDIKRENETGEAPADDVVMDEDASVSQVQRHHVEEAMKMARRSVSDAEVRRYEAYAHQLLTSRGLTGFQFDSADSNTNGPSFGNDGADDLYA

These are yes or no findings as the source states them, for the method shown. For part of these data: Binding seen in cells or lysates may run through a third protein. Some binding calls cover weakened binding; strength is not graded here. Tags and fused reporters may be left off the sequences shown.

The target of test [1] is T1, Pli1 fused to the Gal4 DNA-binding domain (GBD) (S. pombe) (UniProt O94451).
T1 sequence: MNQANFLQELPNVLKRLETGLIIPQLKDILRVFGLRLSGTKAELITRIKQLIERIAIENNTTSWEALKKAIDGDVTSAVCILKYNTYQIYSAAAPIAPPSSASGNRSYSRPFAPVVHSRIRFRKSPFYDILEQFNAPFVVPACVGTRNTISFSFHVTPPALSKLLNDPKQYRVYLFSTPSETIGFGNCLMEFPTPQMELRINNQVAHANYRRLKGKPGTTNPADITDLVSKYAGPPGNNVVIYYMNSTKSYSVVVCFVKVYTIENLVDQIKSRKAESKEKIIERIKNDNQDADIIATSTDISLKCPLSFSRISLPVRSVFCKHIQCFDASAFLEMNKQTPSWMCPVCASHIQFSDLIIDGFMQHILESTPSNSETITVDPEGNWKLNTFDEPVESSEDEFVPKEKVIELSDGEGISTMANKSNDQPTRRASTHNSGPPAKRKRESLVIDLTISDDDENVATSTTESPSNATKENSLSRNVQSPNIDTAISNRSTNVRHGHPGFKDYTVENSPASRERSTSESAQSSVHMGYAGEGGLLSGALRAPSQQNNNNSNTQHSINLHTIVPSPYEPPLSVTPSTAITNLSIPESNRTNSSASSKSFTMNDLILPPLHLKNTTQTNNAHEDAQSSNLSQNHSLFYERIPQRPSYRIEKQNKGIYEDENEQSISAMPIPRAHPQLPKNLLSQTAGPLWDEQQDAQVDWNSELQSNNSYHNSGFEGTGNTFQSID
Description: two-hybrid; S. cerevisiae PJ69-4A; baits fused to the Gal4 DNA-binding domain (pGBKT7), preys fused to the Gal4 activation domain (S. pombe cDNA library in pGAD-GH); ADE2 and HIS3 reporters (SC-leu-trp-ade; SC-leu-trp-his + 3-aminotriazol); screens, retests and spotted dilution series.

Test [2] addresses T2, Rfp1 fused to the Gal4 DNA-binding domain (GBD) (S. pombe) (UniProt O13826).
T2 sequence: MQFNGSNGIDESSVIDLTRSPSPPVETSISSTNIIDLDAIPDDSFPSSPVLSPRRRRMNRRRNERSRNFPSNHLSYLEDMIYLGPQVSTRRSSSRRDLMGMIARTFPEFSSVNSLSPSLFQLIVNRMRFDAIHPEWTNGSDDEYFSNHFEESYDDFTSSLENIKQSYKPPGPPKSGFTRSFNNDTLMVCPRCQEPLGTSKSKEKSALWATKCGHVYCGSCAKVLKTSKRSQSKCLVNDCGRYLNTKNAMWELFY
The description is as above.

In a further test the target is Cdc48-GFP (S. pombe) (UniProt Q9P3A7). As to the kind of experiment: co-IP; Cdc48-GFP on GFP-Trap_M beads from S. pombe cell extracts (25 mM Tris pH 7.5, 50 mM NaCl, 10% glycerol, 0.1% Triton, 2 mM DTT), 1-2 hr at 4 C, washed 4 times with 300 mM NaCl; Slx8-Myc detected with a Myc antibody.
A further test addresses T3, GST-Pli1 (S. pombe) (UniProt O94451).
T3 sequence: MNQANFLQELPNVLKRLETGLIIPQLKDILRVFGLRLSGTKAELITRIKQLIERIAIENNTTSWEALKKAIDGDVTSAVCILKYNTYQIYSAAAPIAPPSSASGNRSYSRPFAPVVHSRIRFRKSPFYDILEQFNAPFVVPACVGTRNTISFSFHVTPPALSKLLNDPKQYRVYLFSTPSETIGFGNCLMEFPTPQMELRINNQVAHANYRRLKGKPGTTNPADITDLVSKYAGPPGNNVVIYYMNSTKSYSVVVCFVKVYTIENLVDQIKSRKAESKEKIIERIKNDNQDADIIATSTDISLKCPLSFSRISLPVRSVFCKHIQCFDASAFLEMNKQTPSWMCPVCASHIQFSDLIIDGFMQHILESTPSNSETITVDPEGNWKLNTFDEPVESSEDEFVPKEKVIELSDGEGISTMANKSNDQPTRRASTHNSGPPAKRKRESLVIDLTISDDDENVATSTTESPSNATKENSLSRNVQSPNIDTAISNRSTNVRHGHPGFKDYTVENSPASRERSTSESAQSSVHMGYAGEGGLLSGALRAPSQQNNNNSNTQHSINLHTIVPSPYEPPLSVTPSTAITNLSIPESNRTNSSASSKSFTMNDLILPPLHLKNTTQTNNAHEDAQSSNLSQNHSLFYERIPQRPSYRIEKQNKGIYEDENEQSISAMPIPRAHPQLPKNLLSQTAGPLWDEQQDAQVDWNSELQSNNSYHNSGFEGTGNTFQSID
Description: pull-down; ~20 ug of GST-fusion protein incubated with the in vitro translation product overnight at 4 C in 1x PBS, 0.1% NP-40, 5% glycerol, 1 mM DTT; glutathione-Sepharose beads 3 hr, washed 5 times; Ufd1 detected by phosphorimaging; only the target purified.

The target of the next test is T4, GST-Rfp1 (S. pombe) (UniProt O13826).
T4 sequence: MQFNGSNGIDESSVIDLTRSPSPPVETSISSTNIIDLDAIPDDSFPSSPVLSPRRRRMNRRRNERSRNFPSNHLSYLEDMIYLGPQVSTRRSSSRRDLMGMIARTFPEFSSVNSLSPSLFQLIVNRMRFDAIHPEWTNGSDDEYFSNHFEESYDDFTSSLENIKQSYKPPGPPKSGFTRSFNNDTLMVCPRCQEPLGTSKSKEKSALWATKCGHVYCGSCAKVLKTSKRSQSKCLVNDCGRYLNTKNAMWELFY
The test is described as above.

B1: Rfp1 fused to the Gal4 DNA-binding domain (GBD) (protein, UniProt O13826 1-254)
chain: MQFNGSNGIDESSVIDLTRSPSPPVETSISSTNIIDLDAIPDDSFPSSPVLSPRRRRMNRRRNERSRNFPSNHLSYLEDMIYLGPQVSTRRSSSRRDLMGMIARTFPEFSSVNSLSPSLFQLIVNRMRFDAIHPEWTNGSDDEYFSNHFEESYDDFTSSLENIKQSYKPPGPPKSGFTRSFNNDTLMVCPRCQEPLGTSKSKEKSALWATKCGHVYCGSCAKVLKTSKRSQSKCLVNDCGRYLNTKNAMWELFY
Regarding B1, the binding result in test [1] is given as “binds”.

B2: Ufd1CtΔSIM (domain or fragment, UniProt O42915 248-335)
chain: LMKGTGTKLNGKEVAEVPKINLLDVEKQECPAPLILPLGTYFFGYPYKAPSIEEDSKKDPNLFKFEGAGTSLRASRKTNGTMGKGSSD
As to B2, the binding entry in test [2] and in test [1] was “no binding” in each case.

B3: Slx8-Myc (protein, UniProt P87176 1-269)
chain: MPPAHKRDTNVRNLSAPYNIPSQSARVAAGNAAINRRRSSPVENSPGNGFPVSEDATDYPSGTTSENESLPLNRAPRSLREVASELAQEETLPVETSDLNIDVESEVFDLEDINFQNDADDINQRFTYNNHPASVENSLTNVNSIHAQPTTISDMIDLTDETSYDPRKQKFEQGKNPSTTNAEIEKEEPSKKQVVPSSQRLADYKCVICLDSPENLSCTPCGHIFCNFCILSALGTTAATQKCPVCRRKVHPNKVICLEMMLGSQKKKS
For B3, the binding result with Cdc48-GFP (S. pombe) is given as “binds”.

B4: S. pombe SUMO fused to GAD (protein, UniProt O13351 1-117)
chain: MSESPSANISDADKSAITPTTGDTSQQDVKPSTEHINLKVVGQDNNEVFFKIKKTTEFSKLMKIYCARQGKSMNSLRFLVDGERIRPDQTPAELDMEDGDQIEAVLEQLGGCTHLCL
B4: the binding result in test [2] and in test [1] was “binds” in each case.

B5: C-terminal domain of Ufd1 (aa 248-342) fused to the Gal4 DNA activation domain (GAD) (domain or fragment, UniProt O42915 248-342)
chain: LMKGTGTKLNGKEVAEVPKINLLDVEKQECPAPLILPLGTYFFGYPYKAPSIEEDSKKDPNLFKFEGAGTSLRASRKTNGTMGKGSSDDPIDIDA
In the case of B5, the binding entry in test [2] and in test [1] was “binds” each time.

B6: Ufd1CtDAADADA (domain or fragment, UniProt O42915 248-342)
chain: LMKGTGTKLNGKEVAEVPKINLLDVEKQECPAPLILPLGTYFFGYPYKAPSIEEDSKKDPNLFKFEGAGTSLRASRKTNGTMGKGSSDDAADADA
Regarding B6, the binding entry in test [2] and in test [1] was “no binding” in each case.

B7: in vitro-translated, 35S-labeled Ufd1 (aa 110-342) (domain or fragment, UniProt O42915 110-342)
chain: MMTTLSLEPGDLVRVINTDIAQGSYVKLQPQSVNFLDITDHRAVLENALRNFSTLTKSDIFEILYNDQVYQIKVIDVQPDDSRHVVSVVETDLVVDFDPPIGYEESLQKNKQQNIAGVQGTMVTKIGYDELVRQGDSNLMKGTGTKLNGKEVAEVPKINLLDVEKQECPAPLILPLGTYFFGYPYKAPSIEEDSKKDPNLFKFEGAGTSLRASRKTNGTMGKGSSDDPIDIDA
modifications: 35S-methionine-labelled
B7: the binding entry with GST-Pli1 (S. pombe) and with GST-Rfp1 (S. pombe) was “binds” each time.
